Data on six compounds can be found in patent US9232799B2, “N-[(het)arylethyl)] pyrazole(thio)carboxamides and their heterosubstituted analogues” (BAYER INTELLECTUAL PROPERTY GMBH, priority 2010, dated 2016).

Molecules are shown by their SMILES.

As usually defined, the inhibition is how much of the control response was suppressed.

One assay deals with Fusarium graminearum. Nature of the assay: microbe, parasite or virus in culture. To be noted: for inhibition at 50 µM: Fusarium graminearum, read-out: % inhibition fungal growth. How it is done:
Compounds were tested in microtiter plates in DON-inducing liquid media (1 g (NH4)2HPO4, 0.2 g MgSO4×7H2O, 3 g KH2PO4, 10 g Glycerin, 5 g NaCl and 40 g Sachharose per liter), supplemented with 10% oat extract, containing 0.5% DMSO, inoculated with a concentrated spore suspension of Fusarium graminearum to a final concentration of 2000 spores/ml.
The plate was covered and incubated at high humidity at 28° C. for 7 days.
At start and after 3 days OD measurement at OD620 multiple read per well (square: 3×3) was taken to calculate the growth inhibition.

The next assay deals with Fusarium proliferatum. Nature of the assay: microbe, parasite or virus in culture. The settings on record: for inhibition at 50 µM: read-out: % inhibition fungal growth. The method, then:
Compounds were tested in microtiter plates in fumonisin-inducing liquid media (0.5 g malt extract, 1 g yeast extract, 1 g bacto peptone, 20 g Fructose,1 g KH2PO4, 0.3 g MgSO4×7H2O, 0.3 g KCl, 0.05 g ZnSO4×7H2O and 0.01 g CuSO4×5H2O per liter) containing 0.5% DMSO, inoculated with a concentrated spore suspension of Fusarium proliferatum to a final concentration of 2000 spores/ml.
Plates were covered and incubated at high humidity at 20° C. for 5 days
At start and after 5 days OD measurement at OD620 multiple read per well (square: 3×3) was taken to calculate growth inhibition.

As to `CC(Cc1ccc(Cl)cc1)N(C(=O)c1c(C(F)F)nn(C)c1F)C1CC1` (stereo not shown) [Example 55], the “% inhibition fungal growth” value in the assay with Fusarium graminearum is recorded as 0%. In the case of `COC(c1ccc(Cl)cc1Cl)C(C)NC(=O)c1c(C(F)F)nn(C)c1F` (stereo not shown) [Example 73, N-[1-(2,4-dichlorophenyl)-1-methoxypropan-2-yl]-3-(difluoromethyl)-5-fluoro-1-methyl-1H-pyrazole-4-carboxamide], the inhibition at 50 µM in the assay on Fusarium proliferatum is 86%; in the assay with Fusarium graminearum, 100%. Take `Cn1nc(C(F)F)c(C(=O)NC(C)(C)C(=O)c2ccc3ccccc3c2)c1F` [Example 160]: the “% inhibition fungal growth” value in the assay with Fusarium graminearum amounted to 89%. With `Cn1nc(C(F)F)c(C(=O)NCCc2ncc(C(F)(F)F)cc2Cl)c1F` [Example 187], the “% inhibition fungal growth” value is on record as 75% in the assay on Fusarium proliferatum (dose 50 μM, table O) and 85% in the assay on Fusarium graminearum.

For `CC(Cc1ncc(C(F)(F)F)cc1Cl)N(C(=O)c1c(C(F)F)nn(C)c1F)C1CC1` (stereo not shown) [Example 188, N-{1-[3-chloro-5-(trifluoromethyl)pyridin-2-yl]propan-2-yl}-N-cyclopropyl-3-(difluoromethyl)-5-fluoro-1-methyl-1H-pyrazole-4-carboxamide], the inhibition at 50 µM came out at 74% in the assay on Fusarium proliferatum and 95% in the assay with Fusarium graminearum.

On to `CC(Cc1ncc(C(F)(F)F)cc1Cl)NC(=O)c1c(C(F)F)nn(C)c1F` (stereo not shown) [Example 190, N-{1-[3-chloro-5-(trifluoromethyl)pyridin-2-yl]propan-2-yl}-3-(difluoromethyl)-5-fluoro-1-methyl-1H-pyrazole-4-carboxamide], for which the inhibition at 50 µM in the assay with Fusarium proliferatum came out at 74%; in the assay with Fusarium graminearum, 96%.
